Data reported in publication PMC5505151, “A proteomic analysis of LRRK2 binding partners reveals interactions with multiple signaling components of the WNT/PCP pathway” (Molecular Neurodegeneration, 2017).
Like-named read-outs stand apart in the source and are kept apart here. Results are given in words; binding and its absence hold for the method and conditions named. In cells and extracts the contact can be indirect. Some binding calls cover weakened binding; strength is not graded here. For some of these results: Tags and fused reporters may be left off the sequences shown. Values belong to the molecule of their own block, whether it stands above or below them.

Chains of the proteins cited; added tags and fusions are not shown. Lines headed by an entry give the natural chain unless they say otherwise; changes in a name come on top. Residues count along the entry.
UniProt Q5S007: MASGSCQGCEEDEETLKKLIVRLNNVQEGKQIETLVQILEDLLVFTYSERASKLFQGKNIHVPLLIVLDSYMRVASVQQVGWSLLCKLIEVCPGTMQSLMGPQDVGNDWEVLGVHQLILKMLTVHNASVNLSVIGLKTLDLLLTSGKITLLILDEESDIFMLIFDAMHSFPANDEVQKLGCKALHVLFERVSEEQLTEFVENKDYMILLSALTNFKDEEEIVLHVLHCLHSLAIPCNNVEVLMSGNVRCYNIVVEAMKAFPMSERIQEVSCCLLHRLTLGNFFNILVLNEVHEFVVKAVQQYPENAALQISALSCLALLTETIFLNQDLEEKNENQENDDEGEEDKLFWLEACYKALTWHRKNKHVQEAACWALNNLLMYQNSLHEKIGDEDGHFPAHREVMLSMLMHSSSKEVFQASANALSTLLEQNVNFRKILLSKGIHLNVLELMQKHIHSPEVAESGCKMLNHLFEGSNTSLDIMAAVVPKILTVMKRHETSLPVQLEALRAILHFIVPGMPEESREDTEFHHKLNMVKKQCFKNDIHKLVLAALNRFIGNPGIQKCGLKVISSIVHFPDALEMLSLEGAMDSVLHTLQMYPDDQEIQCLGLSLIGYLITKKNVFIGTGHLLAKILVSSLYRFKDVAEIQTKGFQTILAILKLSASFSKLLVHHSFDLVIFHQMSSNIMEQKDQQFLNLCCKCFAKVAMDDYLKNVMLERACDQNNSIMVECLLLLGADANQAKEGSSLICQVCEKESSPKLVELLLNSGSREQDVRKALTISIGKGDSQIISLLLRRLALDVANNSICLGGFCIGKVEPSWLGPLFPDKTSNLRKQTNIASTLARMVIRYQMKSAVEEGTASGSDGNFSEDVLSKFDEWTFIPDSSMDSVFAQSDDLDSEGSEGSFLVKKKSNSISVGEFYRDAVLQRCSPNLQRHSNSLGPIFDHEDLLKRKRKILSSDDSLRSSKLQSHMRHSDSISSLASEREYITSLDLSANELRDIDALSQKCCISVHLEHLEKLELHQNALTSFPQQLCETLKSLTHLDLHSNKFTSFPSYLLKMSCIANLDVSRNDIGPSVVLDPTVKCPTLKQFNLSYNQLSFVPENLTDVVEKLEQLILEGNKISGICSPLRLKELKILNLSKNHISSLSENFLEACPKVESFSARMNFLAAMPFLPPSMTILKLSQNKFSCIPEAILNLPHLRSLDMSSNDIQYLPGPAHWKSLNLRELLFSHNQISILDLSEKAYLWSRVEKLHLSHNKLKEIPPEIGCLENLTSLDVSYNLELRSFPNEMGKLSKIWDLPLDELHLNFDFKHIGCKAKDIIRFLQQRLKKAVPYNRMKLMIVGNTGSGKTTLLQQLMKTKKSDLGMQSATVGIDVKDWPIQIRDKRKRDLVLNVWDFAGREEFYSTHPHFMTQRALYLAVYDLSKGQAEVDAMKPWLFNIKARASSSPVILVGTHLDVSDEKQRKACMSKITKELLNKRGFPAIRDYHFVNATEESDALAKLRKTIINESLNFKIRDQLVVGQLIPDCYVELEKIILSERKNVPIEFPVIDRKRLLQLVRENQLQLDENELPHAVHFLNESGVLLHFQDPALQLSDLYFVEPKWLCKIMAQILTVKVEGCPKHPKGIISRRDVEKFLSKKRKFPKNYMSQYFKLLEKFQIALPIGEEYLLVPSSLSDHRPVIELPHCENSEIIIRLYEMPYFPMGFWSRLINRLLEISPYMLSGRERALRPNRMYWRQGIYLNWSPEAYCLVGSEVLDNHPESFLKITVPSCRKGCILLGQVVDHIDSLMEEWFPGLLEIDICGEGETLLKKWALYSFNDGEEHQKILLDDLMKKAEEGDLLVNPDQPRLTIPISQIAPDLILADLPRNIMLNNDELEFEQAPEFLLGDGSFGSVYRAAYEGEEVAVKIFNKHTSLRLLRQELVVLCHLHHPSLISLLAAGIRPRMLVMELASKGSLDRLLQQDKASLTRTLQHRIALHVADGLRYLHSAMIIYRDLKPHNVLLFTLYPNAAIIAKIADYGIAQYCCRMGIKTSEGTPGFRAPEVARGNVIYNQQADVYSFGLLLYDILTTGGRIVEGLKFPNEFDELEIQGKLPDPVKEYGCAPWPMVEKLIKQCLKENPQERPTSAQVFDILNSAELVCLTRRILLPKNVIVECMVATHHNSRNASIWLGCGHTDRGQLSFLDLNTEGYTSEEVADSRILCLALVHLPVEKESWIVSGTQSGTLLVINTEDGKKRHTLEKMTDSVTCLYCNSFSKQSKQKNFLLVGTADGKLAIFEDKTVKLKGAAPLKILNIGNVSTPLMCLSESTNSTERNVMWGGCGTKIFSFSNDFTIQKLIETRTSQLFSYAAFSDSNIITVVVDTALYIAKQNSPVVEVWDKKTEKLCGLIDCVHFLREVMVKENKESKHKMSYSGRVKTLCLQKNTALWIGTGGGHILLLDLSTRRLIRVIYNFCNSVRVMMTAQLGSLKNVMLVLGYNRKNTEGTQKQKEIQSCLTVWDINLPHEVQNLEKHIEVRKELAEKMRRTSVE
UniProt O35161, residues 30-3034: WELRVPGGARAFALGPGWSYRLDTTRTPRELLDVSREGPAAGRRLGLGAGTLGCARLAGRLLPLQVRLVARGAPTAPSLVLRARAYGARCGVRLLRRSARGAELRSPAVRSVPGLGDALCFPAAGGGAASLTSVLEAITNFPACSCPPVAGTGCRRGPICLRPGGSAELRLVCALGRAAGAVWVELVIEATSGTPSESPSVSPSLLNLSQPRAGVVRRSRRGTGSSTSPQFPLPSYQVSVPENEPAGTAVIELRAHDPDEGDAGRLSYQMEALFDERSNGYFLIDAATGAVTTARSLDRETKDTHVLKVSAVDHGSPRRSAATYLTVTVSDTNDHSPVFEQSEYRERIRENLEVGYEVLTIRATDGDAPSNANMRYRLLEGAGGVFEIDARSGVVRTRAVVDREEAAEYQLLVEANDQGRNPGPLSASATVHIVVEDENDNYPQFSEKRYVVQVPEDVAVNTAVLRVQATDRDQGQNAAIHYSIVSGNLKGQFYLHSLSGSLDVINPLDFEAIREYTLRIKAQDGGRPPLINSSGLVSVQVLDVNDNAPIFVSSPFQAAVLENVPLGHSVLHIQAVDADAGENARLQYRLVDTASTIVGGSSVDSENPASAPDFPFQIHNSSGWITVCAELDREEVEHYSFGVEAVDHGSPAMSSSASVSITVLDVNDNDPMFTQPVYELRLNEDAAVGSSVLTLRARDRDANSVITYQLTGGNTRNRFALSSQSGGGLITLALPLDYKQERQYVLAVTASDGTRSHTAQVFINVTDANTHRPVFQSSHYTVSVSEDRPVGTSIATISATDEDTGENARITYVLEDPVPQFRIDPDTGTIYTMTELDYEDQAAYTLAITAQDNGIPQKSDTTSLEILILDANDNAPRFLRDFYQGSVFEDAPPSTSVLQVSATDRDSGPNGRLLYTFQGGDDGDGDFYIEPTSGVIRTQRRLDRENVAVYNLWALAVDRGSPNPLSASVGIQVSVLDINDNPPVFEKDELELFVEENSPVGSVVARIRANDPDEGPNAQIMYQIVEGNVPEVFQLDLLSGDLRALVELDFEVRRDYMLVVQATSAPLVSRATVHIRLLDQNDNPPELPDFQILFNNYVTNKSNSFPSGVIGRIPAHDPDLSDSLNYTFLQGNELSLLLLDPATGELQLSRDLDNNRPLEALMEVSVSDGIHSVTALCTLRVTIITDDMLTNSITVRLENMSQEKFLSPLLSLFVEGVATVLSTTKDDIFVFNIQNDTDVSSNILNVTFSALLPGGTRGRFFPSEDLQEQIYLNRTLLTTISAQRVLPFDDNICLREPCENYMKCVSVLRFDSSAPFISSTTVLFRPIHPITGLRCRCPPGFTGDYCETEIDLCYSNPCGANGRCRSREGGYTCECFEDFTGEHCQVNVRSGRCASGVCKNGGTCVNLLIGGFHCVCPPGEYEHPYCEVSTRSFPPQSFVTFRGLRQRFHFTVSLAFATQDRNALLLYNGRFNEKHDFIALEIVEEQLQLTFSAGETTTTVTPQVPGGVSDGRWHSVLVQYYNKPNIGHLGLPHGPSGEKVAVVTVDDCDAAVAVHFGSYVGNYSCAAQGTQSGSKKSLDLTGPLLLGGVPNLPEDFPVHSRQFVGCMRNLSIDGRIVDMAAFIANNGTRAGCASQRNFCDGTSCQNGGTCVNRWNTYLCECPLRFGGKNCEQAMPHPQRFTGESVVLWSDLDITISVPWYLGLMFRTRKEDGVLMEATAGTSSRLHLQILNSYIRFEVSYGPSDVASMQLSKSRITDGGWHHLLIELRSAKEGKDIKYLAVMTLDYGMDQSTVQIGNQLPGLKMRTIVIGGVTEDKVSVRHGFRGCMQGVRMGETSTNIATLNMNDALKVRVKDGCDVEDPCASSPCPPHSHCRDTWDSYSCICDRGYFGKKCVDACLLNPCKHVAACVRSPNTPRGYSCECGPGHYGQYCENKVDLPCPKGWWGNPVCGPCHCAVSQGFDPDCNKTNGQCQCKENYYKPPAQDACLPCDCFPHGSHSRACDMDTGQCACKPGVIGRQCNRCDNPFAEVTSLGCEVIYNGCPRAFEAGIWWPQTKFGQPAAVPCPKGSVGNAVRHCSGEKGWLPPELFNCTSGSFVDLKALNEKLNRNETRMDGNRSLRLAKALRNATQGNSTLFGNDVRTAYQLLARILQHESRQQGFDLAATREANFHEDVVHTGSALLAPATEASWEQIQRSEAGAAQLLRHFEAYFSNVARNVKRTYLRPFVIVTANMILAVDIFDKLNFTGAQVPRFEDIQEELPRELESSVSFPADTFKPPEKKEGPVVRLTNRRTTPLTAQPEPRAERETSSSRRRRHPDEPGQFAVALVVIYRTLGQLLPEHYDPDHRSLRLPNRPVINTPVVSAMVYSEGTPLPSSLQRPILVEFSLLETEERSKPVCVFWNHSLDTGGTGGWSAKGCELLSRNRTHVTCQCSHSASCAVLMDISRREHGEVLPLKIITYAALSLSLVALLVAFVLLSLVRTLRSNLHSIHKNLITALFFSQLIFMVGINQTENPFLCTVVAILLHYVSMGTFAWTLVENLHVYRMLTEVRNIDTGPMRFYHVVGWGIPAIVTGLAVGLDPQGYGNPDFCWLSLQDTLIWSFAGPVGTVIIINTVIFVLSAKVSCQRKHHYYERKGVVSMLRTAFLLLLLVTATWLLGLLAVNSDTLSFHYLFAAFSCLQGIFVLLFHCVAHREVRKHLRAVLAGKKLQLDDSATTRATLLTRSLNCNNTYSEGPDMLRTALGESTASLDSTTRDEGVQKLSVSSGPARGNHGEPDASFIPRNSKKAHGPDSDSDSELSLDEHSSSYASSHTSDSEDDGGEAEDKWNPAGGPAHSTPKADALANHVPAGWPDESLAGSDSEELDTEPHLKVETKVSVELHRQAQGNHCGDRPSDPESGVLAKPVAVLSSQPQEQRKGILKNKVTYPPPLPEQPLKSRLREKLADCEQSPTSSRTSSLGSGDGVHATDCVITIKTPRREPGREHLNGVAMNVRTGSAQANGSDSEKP
UniProt Q9Z138, residues 34-944: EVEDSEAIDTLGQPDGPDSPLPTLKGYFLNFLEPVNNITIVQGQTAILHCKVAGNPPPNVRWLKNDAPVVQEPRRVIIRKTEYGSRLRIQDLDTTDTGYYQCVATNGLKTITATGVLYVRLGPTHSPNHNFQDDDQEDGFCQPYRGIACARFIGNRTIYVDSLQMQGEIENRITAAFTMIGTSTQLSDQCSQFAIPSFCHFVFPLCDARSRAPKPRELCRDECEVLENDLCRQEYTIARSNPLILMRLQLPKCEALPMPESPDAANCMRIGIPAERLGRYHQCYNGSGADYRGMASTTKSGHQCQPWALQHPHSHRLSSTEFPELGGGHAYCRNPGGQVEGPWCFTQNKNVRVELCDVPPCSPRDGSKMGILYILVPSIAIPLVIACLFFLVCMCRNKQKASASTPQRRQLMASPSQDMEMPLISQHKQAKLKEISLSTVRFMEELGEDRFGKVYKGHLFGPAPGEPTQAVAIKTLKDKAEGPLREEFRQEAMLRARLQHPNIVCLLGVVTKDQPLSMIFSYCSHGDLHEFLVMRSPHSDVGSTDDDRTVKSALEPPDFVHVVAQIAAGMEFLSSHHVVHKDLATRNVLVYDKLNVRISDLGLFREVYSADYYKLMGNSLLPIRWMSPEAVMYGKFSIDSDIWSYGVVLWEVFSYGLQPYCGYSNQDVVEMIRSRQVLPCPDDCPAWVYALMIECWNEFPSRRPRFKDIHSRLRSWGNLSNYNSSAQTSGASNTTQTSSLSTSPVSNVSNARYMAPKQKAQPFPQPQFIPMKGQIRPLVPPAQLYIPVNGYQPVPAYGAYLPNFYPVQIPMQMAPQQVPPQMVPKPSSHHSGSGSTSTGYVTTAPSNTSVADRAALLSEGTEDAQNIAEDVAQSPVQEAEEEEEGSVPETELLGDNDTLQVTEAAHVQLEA

What was measured:
[1] = molecular target: LRRK2 (wild type, transiently overexpressed; tagged construct not told for the experiment) (UniProt Q5S007); assay: co-IP; proteins transiently overexpressed in HEK293T, lysed 24-48 h post transfection in NP40 lysis buffer, pre-cleared, 1 ug antibody (GFP, C-MYC, V5 or FLAG) and DynaBeads, 5 washes, immunoblot
V5-Lrrk2 WT [2] = molecular target: V5-Lrrk2 WT (UniProt Q5S007); assay: as above
LRRK2 G2019S (V5) [3] = molecular target: LRRK2 G2019S (V5) (UniProt Q5S007); assay: as above
LRRK2 R1441C (V5) [4] = molecular target: LRRK2 R1441C (V5) (UniProt Q5S007); assay: as above
LRRK2 Y1699C (V5) [5] = molecular target: LRRK2 Y1699C (V5) (UniProt Q5S007); assay: as above
[6] = molecular target: LRRK2 (wild type, transiently overexpressed; tagged construct not told for the experiment) (UniProt Q5S007); assay: as above; remark: listed apart in the source
[7] = molecular target: LRRK2 (wild type, transiently overexpressed; tagged construct not told for the experiment) (UniProt Q5S007); assay: co-IP; data not shown; transient overexpression in HEK293T and immunoprecipitation of LRRK2
LRRK2 G2019S (V5) [8] = molecular target: LRRK2 G2019S (V5) (UniProt Q5S007); assay: co-IP; proteins transiently overexpressed in HEK293T, lysed 24-48 h post transfection in NP40 lysis buffer, pre-cleared, 1 ug antibody (GFP, C-MYC, V5 or FLAG) and DynaBeads, 5 washes, immunoblot; remark: listed apart in the source
V5-Lrrk2 WT [9] = molecular target: V5-Lrrk2 WT (UniProt Q5S007); assay: as above; remark: listed apart in the source
LRRK2 R1441C (V5) [10] = molecular target: LRRK2 R1441C (V5) (UniProt Q5S007); assay: as above; remark: listed apart in the source
LRRK2 Y1699C (V5) [11] = molecular target: LRRK2 Y1699C (V5) (UniProt Q5S007); assay: as above; remark: listed apart in the source

Molecule: Celsr1-EGFP (from UniProt O35161 30-3034) (receptor)
- binding (V5-Lrrk2 WT [2]): binds

Molecule: CELSR1 (transiently overexpressed; tagged construct not told for the experiment) (from UniProt O35161 30-3034) (receptor)
- binding [1]: binds
- binding (LRRK2 G2019S (V5) [3]): binds
- binding (V5-Lrrk2 WT [2]): binds
- binding (LRRK2 R1441C (V5) [4]): binds
- binding (LRRK2 Y1699C (V5) [5]): binds

B2: Flotillin1-GFP (protein, UniProt O75955 1-427)
chain: MFFTCGPNEAMVVSGFCRSPPVMVAGGRVFVLPCIQQIQRISLNTLTLNVKSEKVYTRHGVPISVTGIAQVKIQGQNKEMLAAACQMFLGKTEAEIAHIALETLEGHQRAIMAHMTVEEIYKDRQKFSEQVFKVASSDLVNMGISVVSYTLKDIHDDQDYLHSLGKARTAQVQKDARIGEAEAKRDAGIREAKAKQEKVSAQYLSEIEMAKAQRDYELKKAAYDIEVNTRRAQADLAYQLQVAKTKQQIEEQRVQVQVVERAQQVAVQEQEIARREKELEARVRKPAEAERYKLERLAEAEKSQLIMQAEAEAASVRMRGEAEAFAIGARARAEAEQMAKKAEAFQLYQEAAQLDMLLEKLPQVAEEISGPLTSANKITLVSSGSGTMGAAKVTGEVLDILTRLPESVERLTGVSISQVNHKPLRTA
- binding [7]: binds weakly

B4: Flotillin2-GFP (protein, UniProt Q14254 1-428)
chain: MGNCHTVGPNEALVVSGGCCGSDYKQYVFGGWAWAWWCISDTQRISLEIMTLQPRCEDVETAEGVALTVTGVAQVKIMTEKELLAVACEQFLGKNVQDIKNVVLQTLEGHLRSILGTLTVEQIYQDRDQFAKLVREVAAPDVGRMGIEILSFTIKDVYDKVDYLSSLGKTQTAVVQRDADIGVAEAERDAGIREAECKKEMLDVKFMADTKIADSKRAFELQKSAFSEEVNIKTAEAQLAYELQGAREQQKIRQEEIEIEVVQRKKQIAVEAQEILRTDKELIATVRRPAEAEAHRIQQIAEGEKVKQVLLAQAEAEKIRKIGEAEAAVIEAMGKAEAERMKLKAEAYQKYGDAAKMALVLEALPQIAAKIAAPLTKVDEIVVLSGDNSKVTSEVNRLLAELPASVHALTGVDLSKIPLIKKATGVQV
- binding [6]: binds

B5: Flag-JIP3 (protein, UniProt Q9ESN9 1-1337)
chain: MMEIQMDEGGGVVVYQDDYCSGSVMSERVSGLAGSIYREFERLIHCYDEEVVKELMPLVVNVLENLDSVLSENQEHEVELELLREDNEQLLTQYEREKALRKQAEEKFIEFEDALEQEKKELQIQVEHYEFQTRQLELKAKNYADQISRLEERESEMKKEYNALHQRHTEMIQTYVEHIERSKMQQVGGSGQTESSLPGRSRKERPTSLNVFPLADGMVRAQMGGKLVPAGDHWHLSDLGQLQSSSSYQCPNDEMSESGQSSAAATPSTTGTKSNTPTSSVPSAAVTPLNESLQPLGDYVSVTKNNKQAREKRNSRNMEVQVTQEMRNVSIGMGSSDEWSDVQDIIDSTPELDVCPETRLERTGSSPTQGIVNKAFGINTDSLYHELSTAGSEVIGDVDEGADLLGEFSVRDDFFGMGKEVGNLLLENSQLLETKNALNVVKNDLIAKVDQLSGEQEVLKGELEAAKQAKVKLENRIKELEEELKRVKSEAVTARREPREEVEDVSSYLCTELDKIPMAQRRRFTRVEMARVLMERNQYKERLMELQEAVRWTEMIRASREHPSVQEKKKSTIWQFFSRLFSSSSSPPPAKRSYPSVNIHYKSPTAAGFSQRRSHALCQISAGSRPLEFFPDDDCTSSARREQKREQYRQVREHVRNDDGRLQACGWSLPAKYKQLSPNGGQEDTRMKNVPVPVYCRPLVEKDPSTKLWCAAGVNLSGWKPHEEDSSNGPKPVPGRDPLTCDREGEGEPKSTHPSPEKKKAKETPEADATSSRVWILTSTLTTSKVVIIDANQPGTIVDQFTVCNAHVLCISSIPAASDSDYPPGEMFLDSDVNPEDSGADGVLAGITLVGCATRCNVPRSNCSSRGDTPVLDKGQGDVATTANGKVNPSQSTEEATEATEVPDPGPSESEATTVRPGPLTEHVFTDPAPTPSSSTQPASENGSESNGTIVQPQVEPSGELSTTTSSAAPTMWLGAQNGWLYVHSAVANWKKCLHSIKLKDSVLSLVHVKGRVLVALADGTLAIFHRGEDGQWDLSNYHLMDLGHPHHSIRCMAVVNDRVWCGYKNKVHVIQPKTMQIEKSFDAHPRRESQVRQLAWIGDGVWVSIRLDSTLRLYHAHTHQHLQDVDIEPYVSKMLGTGKLGFSFVRITALLIAGNRLWVGTGNGVVISIPLTETVVLHRGQLLGLRANKTSPTSGEGTRPGGIIHVYGDDSSDKAASSFIPYCSMAQAQLCFHGHRDAVKFFVSVPGNVLATLNGSVLDSPSEGPGPAAPAADAEGQKLKNALVLSGGEGYIDFRIGDGEDDETEECAGDVNQTKPSLSKAERSHIIVWQVSYTPE
- binding [6]: binds

Next, values leading:

- binding [1]: no binding
Molecule: Ror2-Flag (from UniProt Q9Z138 34-944) (receptor)

- binding [6]: no binding
B1: Vangl2-HA (protein, UniProt Q91ZD4 1-521)
chain: MDTESQYSGYSYKSGHSRSSRKHRDRRDRHRSKSRDGSRGDKSVTIQAPGEPLLDNESTRGDERDDNWGETTTVVTGTSEHSISHDDLTRIAKDMEDSVPLDCSRHLGVAAGAILALLSFLTPLAFLLLPPLLWREELEPCGTACEGLFISVAFKLLILLLGSWALFFRRPKASLPRVFVLRALLMVLVFLLVISYWLFYGVRILDARERSYQGVVQFAVSLVDALLFVHYLAVVLLELRQLQPQFTLKVVRSTDGASRFYNVGHLSIQRVAVWILEKYYHDFPVYNPALLNLPKSVLAKKVSGFKVYSLGEENSTNNSTGQSRAVIAAAARRRDNSHNEYYYEEAEHERRVRKRRARLVVAVEEAFTHIKRLQEEEQKNPREVMDPREAAQAIFASMARAMQKYLRTTKQQPYHTMESILQHLEFCITHDMTPKAFLERYLAAGPTIQYHKERWLAKQWTLVSEEPVTNGLKDGIVFLLKRQDFSLVVSTKKVPFFKLSEEFVDPKSHKFVMRLQSETSV

- binding [6]: binds
- binding (LRRK2 G2019S (V5) [8]): binds
- binding (V5-Lrrk2 WT [9]): binds
- binding (LRRK2 R1441C (V5) [10]): binds
- binding (LRRK2 Y1699C (V5) [11]): binds
B3: Prickle1-ECFP (natural protein, UniProt Q3U5C7 1-832, looked up)
chain: MPLEMEPKMSKLVFGCQRSSTSDDDSGCALEEYAWVPPGLRPEQIQLYFACLPEEKVPYVNSPGEKHRIKQLLYQLPPHDNEVRYCQSLSEEEKKELQVFSAQRKKEALGRGTIKLLSRAVMHAVCEQCGLQMNGGEVAVFASRAGPGVCWHPSCFVCFTCNELLVDLIYFYQDGKIHCGRHHAELLKPRCSACDEIIFADECTEAEGRHWHMKHFCCLECETVLGGQRYIMKDGRPFCCGCFESLYAEYCETCGEHIGVDHAQMTYDGQHWHATEACFSCAQCKASLLGCPFLPKQGQIYCSKTCSLGEDIHASDSSDSAFQSARSRDSRRSVRMGRSSRSADQCRQSLLLSPALNYKFPGLSGNADDTLSRKLDDVSLASRQGAGFANEEFWKARVEQEASEDPEEWAEHEDYMTQLLLKFGDKNLFQQQSSEVDPRASEHWIPDNMVTNKPEVKPNHQGLASKKYQSDMYWAQSQDGLGDSAYGSHPGPASSRRLQELDLDHGAAGYTHDQSQWYEDSLECLSDLKPEQSIRDSMDSLALSNITGASVDGESKPRPSLYSLQNFEEIEAEDCEKMSNMGTLNSSMLHRSAESLQSLNSGLCPEKILPEEKPAHLPVLRRSKSQSRPQQVKFSDDVIDNGSYDIEIRQPPMSERTRRRAYHFEERGSRPHHHRHRRSRKSRSDNALNLVTERKYSAKDRLRLYTPDNYEKFIQNKSARELQAYMQNANLYSQYAHATSDYALQNPGMNRFLGLCGEDDDSWCSSSTSSSDSEEEGYFLGQPIPQPRPQRFTYYTDDLSSPASALPTPQFTQRTTKSKKKKGHKGKNCIIS
